# Test results reported in ChEMBL document CHEMBL4888484, “Replenishing the malaria drug discovery pipeline: Screening and hit evaluation of the MMV Hit Generation Library 1 (HGL1) against asexual blood stage Plasmodium falciparum ,using a nano luciferase reporter read-out” (2022).
# Screen size: about 150,000 compounds; about 540 (0.36%) showed an effect of 50% or more. The list shows a part of the results.
# System: Plasmodium falciparum
# Assay: Primary screen in NF54 nanoGlo assay, in single point, at 2uM, 72h; a lower Z score goes with more inhibition
# Assay type: functional, Erythrocyte
# Settings: timepoint 72 hour
SMILES,% Inhibition [%],Z score
CC(C)CCN(CC(=O)N1CCNCC1)C(=O)c1ccc(F)c(Cl)c1,1,-0.05
CC(C)N(c1ccccc1)c1ccc(NC(=O)C2CCC2)cc1,1,-0.19
O=C(c1cc(-c2ccncc2)on1)N1CCOC2(CCCCCC2)C1,32,-4.58
CCc1cc2c(Nc3ccc(N(C)C)cc3)nc(C)nc2s1,-20,2.59
CC1CCC2(CC1)NC(=O)N(CN1CCC[C@H]1c1ccc3c(c1)OCCCO3)C2=O (stereo partly drawn),2,-0.43
Cc1ccc(C(=O)N2CC[C@H](F)C2)cc1C(=O)N1CC[C@H](F)C1,13,-1.71
Cc1ccc(NC(=O)N2CCN(Cc3ccncc3)CC2)c(Cl)c1,-7,0.72
O=C(c1cnn2cccnc12)N(c1ccccc1F)C1CCCC1,-19,3.12
O=C1[C@@H]2Cc3c([nH]c4ccccc34)CN2C(=O)CN1Cc1ccc(F)cc1,-1,0.17
O=C(NCCN1CCOCC1)c1cncc(-c2ccccc2Br)c1,-20,2.45
COc1ccc(-n2cnc3c2NC(=O)C[C@@H]3c2cccnc2)c(OC)c1,-7,0.86
O=C(Nc1ncc(Cc2ccc(Cl)cc2)s1)c1cccc2ccccc12,-9,1.4
CS(=O)(=O)N1CCc2nc(NC(=O)c3cnccn3)sc2C1,-7,1.04
CC(C)CCc1cc(NC(=O)[C@@H]2C[C@@H](C)CCO2)n(C)n1,-10,1.26
Cn1cnc2cccc(C(=O)N[C@H]3CCS(=O)(=O)C(C)(C)C3)c21,-2,0.28
CC(C)(C)NC[C@H](O)COCCOc1ccc(Cl)cc1,-9,1.47
CN(C)C(=O)c1ccc2c(c1)ncn2CCNC(=O)NC(C)(C)C,-16,2.67
CC(C=Cc1ccccn1)NCC(c1ccco1)N1CCCC1 (stereo not drawn),-5,0.61
C[C@@H]1CC(=O)N[C@H](C(=O)Nc2cncc(-c3cnc4[nH]ccc4c3)c2)C1,-16,2.68
CCC1(CNS(=O)(=O)c2csnc2C(=O)OC)CC1,6,-0.91
O=C1c2ccccc2CCC1C1(O)C(=O)N(C/C=C/c2ccccc2)c2ccccc21 (stereo not drawn),8,-1.04

SMILES,% Inhibition [%],Z score
CC(C)(C)OC(=O)N1CCC(c2c(C(=O)NCc3ccccc3Cl)cnn2-c2ccccc2Cl)CC1,-2,0.41
Cc1n[nH]c(N2CCN(Cc3ccc4ccc(Cl)cc4n3)CC2)n1,-7,1.07
CCN(CCC1CCN(CC(=O)Nc2cc(F)ccc2F)CC1)CC1CC1,2,-0.26
O=C(Cc1ccsc1)NC[C@H](O)c1ccc2c(c1)CCO2,-13,1.98
O=c1c2cnccc2ncn1Cc1n[nH]c2c1CCC2,-12,1.67
CCOC(=O)N1CCC(NC(C)C(O)c2ccc(F)c(F)c2)CC1 (stereo not drawn),-5,0.42
COc1ccccc1C1(CNC(=O)[C@@H]2CC=CCC2)CCOCC1,-8,1.35
FC(F)(F)C1=N[C@H](C(F)(F)F)N=C(c2ccccc2)N1,7,-1.06
CN(Cc1ccccc1)[C@H]1CS(=O)(=O)C[C@@H]1S(=O)(=O)c1cccs1,1,-0.15
CC(C)N1C(=O)CO[C@H](c2ccc(NC(=O)c3ccc(C#N)cc3)cc2)[C@H]1CO,-11,1.66
CNC(=O)[C@@H]1C[C@H](Oc2ccccc2)CN1C1CCN(Cc2ccccn2)CC1,-3,0.31
CC1C(Cc2ccccc2)CCN1C(=O)[C@@H](C)N (stereo partly drawn),-17,2.02
CC(O)c1ccc(C2(CNC(=O)C3CCOC3)CCCC2)s1 (stereo not drawn),-18,3.42
CN1CC2(CN(S(=O)(=O)c3c(F)cc(F)cc3F)C2)OC1=O,-3,0.39
CCN(CC)c1ccc(C(=O)Nc2ccc(Oc3ncccc3C#N)cc2C)cn1,6,-0.95
C[C@H](NC(=O)c1nc2c(s1)CCCC2)c1nnc(N)s1,1,-0.22
O=C(NCC(F)(F)C1(O)CCCCC1)c1ccoc1,-17,1.81
CCOC(=O)[C@@H](N)Cc1ccc(C)cc1,31,-3.46
COc1ccc(F)cc1CNS(=O)(=O)C[C@@H]1C[C@H]2COC[C@@H]2O1,-3,0.46
O=S(=O)([C@H]1CCN(CCc2ccccc2F)C1)N1CCCC1,-11,1.13
O=c1oc2ccccc2n1CCN1CCN(c2nccc3ccccc23)CC1,-5,0.59

SMILES,% Inhibition [%],Z score
COc1ccc(-c2ccccc2NC(=O)NC[C@H]2CCCCN2C)cc1,8,-1.07
CCOc1cc(N2CC[C@H](c3cnccn3)C2)ncn1,3,-0.26
COc1ccc(CCc2n[nH]c(NC(=O)CCc3c(C)noc3C)n2)cc1OC,21,-2.38
O=C(CCc1nc2ccccc2[nH]1)N1CCC(c2nc3ccccc3o2)CC1,-8,0.69
CC(=O)NCC1=CCN(CC(=O)N[C@@H](C)c2ccc(C)cc2)CC1,3,-0.39
O=C(CCCc1nnc2ccccn12)N1CCc2ccccc2C1,28,-3.21
CONC(=O)NCCc1csc(C)n1,-11,1.11
Cc1ccc2ncc(CN3CCN(C)S3(=O)=O)cc2c1,-5,0.76
CC(C)NC(=O)N(Cc1cc(-c2ccco2)on1)C(C)C,-1,0.13
CCCNC(=O)Nc1ccc(NC(=O)N2CCC[C@H](C(=O)NCC)C2)cc1,-20,2.59
Cc1cc(NC(=O)NC2CCCC2)no1,-37,4.39
COc1cccc(CNC(=O)C[C@H](C)CC2=Nc3ccccc3S(=O)(=O)N2)c1,2,-0.21
Cc1oc(-c2ccc3ccccc3c2)nc1CN1CC[C@H](O)[C@@H](O)C1,4,-0.59
Cc1ccccc1Oc1cc(NC(=O)c2nn3c(C(F)(F)F)cc(-c4ccccc4)nc3c2Br)cc(Oc2ccccc2C)c1,0,0.06
c1ccc(N2CCO[C@@H](CN3CCC(n4cncn4)CC3)C2)cc1,-9,1.47
COc1ccc(F)c(F)c1CN(C)Cc1cc(C2CC2)[nH]n1,-2,0.37
Cc1[nH]c2ccc(CNC(=O)[C@H]3CCCN(Cc4ccco4)C3)cc2c1C,1,-0.22
Cc1c(C#N)c(NC(=O)CN2CCCC2c2nc3ccccc3s2)n(CC2CCCO2)c1C (stereo not drawn),-13,1.91
CC(C)(C)OC(=O)N1CC2(CCCC2)[C@H]1C(=O)NCCCCO,-7,0.88
O=C(NCCc1ccccc1)N1CC[C@H](Cc2nnc(C3CC3)[nH]2)C1,-5,0.89
C[C@H](NCc1csc(N(C)C)n1)c1ccc(N2CCCC2=O)cc1,4,-0.54

SMILES,% Inhibition [%],Z score
COc1ccccc1CN1C=C(C(=O)NC[C@H]2CCCO2)C(C)=NS1(=O)=O,-1,0.08
CCc1sc(C(=O)Nc2cccc(OCC(=O)N3CCCC3)c2)cc1C,-11,2.08
Cc1cccc(NC(=O)[C@@H]2COCC(=O)N2Cc2cccs2)c1,-2,0.23
O=C(Nc1cccn2cnnc12)NC1CCCCC1,-5,0.99
Nc1nnc(Cc2nc(C3CC3)nn2-c2ccccn2)s1,-1,0.23
Cc1ccc(NC(=O)Cn2cnc3nc(N4CCC[C@H](C(=O)NC5CC5)C4)sc3c2=O)cc1,-31,2.74
Cc1cccc(OCC(=O)Nc2nc3ccc(Cl)cc3o2)c1,-2,0.41
CCc1ncc(Cn2cccc(F)c2=O)o1,0,0.04
COCC(=O)N[C@H]1CN(Cc2ccc(Cl)s2)C[C@@H]1C1CC1,0,0
CCCCNC(=O)[C@H](C#N)c1nc(C)cc(C)n1,1,-0.09
Cc1ccc(CNC(=O)N2Cc3c(C)nn(-c4ccccc4)c3-n3cccc3[C@H]2c2ccc(F)cc2)cc1,1,-0.22
O=C(O)[C@H]1CCCN1S(=O)(=O)c1ccc2c(c1)CCCC2,-2,0.33
FC(F)n1ccnc1CN[C@@H]1CCC[C@H]1c1ccccc1,-3,0.49
CCCN1CC[C@H](Nc2cnc3ccccc3n2)C1,-14,2.25
O=C(Nc1cncc(Br)c1)c1cc(N2CCNC2=O)c(F)cc1F,-18,2.68
Cc1ccc(-c2nc(CNC(=O)c3cccnc3)[nH]c2-c2ccccn2)cc1,2,-0.22
COc1ccc(NC(=O)N2CC(c3nc4cc(C)ccc4[nH]3)C2)cc1,3,-0.43
Cc1nc(NC(=O)c2ccc(C)c(Oc3ccncc3)c2)n[nH]1,-2,0.24
O=C(C[C@H]1CCC(F)(F)C1)NCc1nc2ccccn2c1Cl,-12,1.44
Fc1ccc(CN2CCC[C@H](CN3CCOCC3)C2)c(Cl)c1,-12,2.35
CC(=O)Nc1ccc(NC(=O)Nc2cccc(C3OCCO3)c2)cc1,-32,3.77
